Results as given in PubChem BioAssay AID588453 (National Center for Advancing Translational Sciences (NCATS), 2011).
In all, about 390,000 compounds went through this assay and about 4,000 (1%) were called active. Inconclusive means that the source gave no clear call. Such entries were picked first, then a sample of the others. The call rests on the fitted dose curve; in most records, active means well fitted inhibition curve with a large enough effect; inconclusive means small, poorly fitted or top-dose-only effect; inactive means no such curve, though single readings can be large or run the other way. Potencies beside an inconclusive call are fits to weak or partial responses and may not hold up.

target: Thioredoxin reductase 1, cytoplasmic (Rattus norvegicus) (UniProt O89049); assay: qHTS Assay for Inhibitors of Mammalian Selenoprotein Thioredoxin Reductase 1 (TrxR1): qHTS; conditions: recombinant rTrxR1, NADPH fluorescence consumption, selenite substrate; series mostly up to 114 µM; further: nearly all actives have a fitted effect of over 65% in size
In short: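 Rat TrxR1 (90 nM in the dispensed reagent) was pre-reduced with 400 uM NADPH for 5 min at room temperature, then incubated with compound for 15 min. After 400 uM selenite was added, NADPH fluorescence (Ex 340/Em 450 nm) was followed for 8 min.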
On the % scale 0 is the no-effect control and ±100 the full control effect; potency means the concentration at half of the fitted maximal effect; tags describe the fitted curve by direction and shape.

Sequence of UniProt O89049 (O89049 whole entry, looked up): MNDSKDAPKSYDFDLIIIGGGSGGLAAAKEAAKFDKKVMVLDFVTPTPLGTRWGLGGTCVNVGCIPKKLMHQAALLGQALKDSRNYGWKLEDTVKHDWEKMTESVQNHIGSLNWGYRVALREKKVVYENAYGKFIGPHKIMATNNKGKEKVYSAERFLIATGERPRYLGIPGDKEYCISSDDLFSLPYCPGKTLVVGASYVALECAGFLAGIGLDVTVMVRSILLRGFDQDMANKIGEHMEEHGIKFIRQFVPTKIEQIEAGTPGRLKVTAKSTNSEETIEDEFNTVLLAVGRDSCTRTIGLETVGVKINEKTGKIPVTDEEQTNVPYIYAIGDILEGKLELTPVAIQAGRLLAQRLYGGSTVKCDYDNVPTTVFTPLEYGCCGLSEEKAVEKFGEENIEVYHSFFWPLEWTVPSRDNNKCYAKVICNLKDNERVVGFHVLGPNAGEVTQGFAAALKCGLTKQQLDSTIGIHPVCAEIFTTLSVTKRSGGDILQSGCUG

Row | Compound | Potency | activity change, negative = inhibition
1 | COC(=O)Cn1cnc2c(Cl)nc(F)nc21 | inconclusive: 79.4 µM [inhibitor, single point] | –
2 | Cc1c(Cl)cccc1N1C(=O)C(N2C(=O)c3cccc([N+](=O)[O-])c3C2=O)C1c1cccs1 (stereo not drawn) | inactive | –
3 | O=S(=O)(Nc1c(O)ccc2ccccc12)c1ccccc1 | inconclusive: 89.1 µM [inhibitor, partial curve, poor fit] | –
4 | CCc1ccc(S(=O)(=O)/N=C2/C=C(Sc3ncn[nH]3)C(=O)c3ccccc32)cc1 | inconclusive: 1.58 µM [inhibitor, full curve, poor fit] | –
5 | CC(=O)N1CCN(c2cc(N3CCc4ccccc4C3)c(F)cc2[N+](=O)[O-])CC1 | inactive | –
6 | O=C1CC(=O)N(Cc2ccco2)C(=O)N1 | inconclusive: 22.4 µM [inhibitor, full curve] | –
7 | Cc1nnc(Sc2cc(NCCO)c([N+](=O)[O-])c3nonc23)s1 | active: 0.316 µM | –
8 | O=C(COc1ccc([N+](=O)[O-])cc1)NNC(=S)NC(=O)c1ccc(Br)cc1 | inconclusive: 22.4 µM [inhibitor, partial curve] | –
9 | CN(C)c1ccc(NC(=S)NC(=O)/C=C/c2ccc(Cl)cc2)cc1 | inactive | –
10 | Cc1ccc(C(C2C(=O)CC(C)(C)CC2=O)C2C(=O)CC(C)(C)CC2=O)s1 | active: 39.8 µM | –
11 | COc1ccc(OCc2ccc(-c3nc(C#N)c(N4CCC(C(N)=O)CC4)o3)o2)cc1 | inactive | –
12 | S=C(Nc1ccccc1)Nc1ccc(Cl)cc1Cl | inconclusive: 3.16 µM [inhibitor, single point] | –
13 | C#CCOCCOCCOCCNc1nc(N2CCN(C(=O)C([C@@H](C)O)n3cc([C@@H](N)CCCCN)nn3)CC2)nc(N2CCN(C(=O)[C@H](CCCCN)n3cc(CN)nn3)CC2)n1 (stereo partly drawn) | inconclusive: 50.1 µM [inhibitor, single point] | –
14 | N#C/C(=C\c1cccc(Oc2ccccc2)c1)C(=O)N1CCOCC1 | inconclusive: 25.1 µM [inhibitor, single point] | –
15 | O=[N+]([O-])c1ccccc1/C=C/C=N/n1c(-c2cc(-c3ccccc3)n[nH]2)n[nH]c1=S | – | inactive: 0.29% [at 11.4 µM]
16 | Fc1ccc([C@@H]2Nc3ccccc3[C@@H]3C=CC[C@@H]32)cc1 | active: 28.2 µM | –
17 | CCCCCCCC/C=C\CCCCCCCC(=O)O | inconclusive: 89.1 µM [inhibitor, single point] | –
18 | CCOc1ccc(/C=C/C(=O)c2cc(Br)ccc(=O)c2O)cc1 | active: 35.5 µM | –
19 | CC1=CCC(C(=O)O)C(C(=O)Nc2cccnc2)C1 (stereo not drawn) | inactive | –
20 | CCCCOc1ccc(C(=O)NO)cc1 | inactive | –
21 | C=CCn1c(SCC(=O)NC2CCCC2)nc2scc(-c3ccco3)c2c1=O | active: 35.5 µM | –
22 | CCN(CC)CCCN1C(=O)C(=O)/C(=C(/O)c2ccc(C)cc2)C1c1ccccn1 (stereo not drawn) | inactive | –
23 | O=C1/C(=C\c2ccc(Br)o2)Cc2ccccc21 | inconclusive: 56.2 µM [inhibitor, partial curve] | –
24 | CCCOc1cccc(C(=O)NC(=S)Nc2ccccc2)c1 | inconclusive: 39.8 µM [inhibitor, partial curve] | –
25 | CC(C)c1ccc(NC(=O)C2Cc3ccccc3N2C(=O)c2ccccc2)cc1 (stereo not drawn) | inactive | –

Row | Compound | Potency | activity change, negative = inhibition
26 | O=C(NCCN1CCCC1)c1ccc(Cl)cc1 | inactive | –
27 | O=C(O)CCC(C(=O)O)n1c(O)c(C2=c3ccccc3=NC2=O)sc1=S (stereo not drawn) | inconclusive: 70.8 µM [inhibitor, partial curve, poor fit] | –
28 | COc1ccccc1NS(=O)(=O)c1cccc(C(=O)NC2CCN(Cc3ccccc3)CC2)c1 | inactive | –
29 | O=C(OCc1ccccc1)N1CCN(/[N+]([O-])=N/Oc2ccc([N+](=O)[O-])cc2[N+](=O)[O-])CC1 | inconclusive: 10 µM [inhibitor, full curve] | –
30 | COc1ccccc1S(=O)Cc1ccc(C(=O)NC2CCCC2)o1 (stereo not drawn) | inconclusive: 70.8 µM [inhibitor, single point] | –
31 | C#CCOCCOCCOCCNc1nc(N2CCN(C(=O)[C@H](CCCN=C(N)N)n3cc(C(N)[C@@H](C)CC)nn3)CC2)nc(N2CCN(C(=O)[C@H](CCC(=O)O)n3cc([C@@H](N)[C@H](C)CC)nn3)CC2)n1 (stereo partly drawn) | inconclusive: 79.4 µM [inhibitor, partial curve] | –
32 | COc1cc(OC)cc(C(=O)N[C@H](C(=O)Nc2nc3c(s2)CCCC3)C(C)C)c1 | inactive | –
33 | O=C(Cc1ccc2c(c1)OCCO2)c1c(O)cc(O)cc1O | inconclusive: 1.12 µM [inhibitor, partial curve, poor fit] | –
34 | Cc1ccc(-c2nc(CSCC(=O)N3CCN(c4ccccn4)CC3)c(C)o2)cc1 | inactive | –
35 | O=C(Nc1nnc(SCCN2CCOCC2)s1)C1CC(=O)N(c2ccc(F)cc2)C1 (stereo not drawn) | inconclusive: 79.4 µM [inhibitor, single point] | –
36 | COc1cc(CNn2cn[nH]c2=S)ccc1OCC(=O)NC(C)(C)C | inconclusive: 79.4 µM [inhibitor, partial curve, poor fit] | –
37 | COc1ccc(C(=O)N=c2nc(-c3ccccc3)n(-c3ccccc3)s2)cc1 | inactive | –
38 | COc1cc(NC(=O)Cn2c(=O)nc(-c3ccccc3F)c3cc(Cl)ccc32)cc(OC)c1 | inactive | –
39 | Cc1cccc(OCCOc2ccccc2C=C(C#N)C#N)c1 | active: 2.82 µM | –
40 | NS(=O)(=O)c1ccc2nc(NC(=O)CS(=O)(=O)c3ccccc3)sc2c1 | inconclusive: 79.4 µM [inhibitor, partial curve, poor fit] | –
41 | COCCCNc1nc2c(c(=O)n(C)c(=O)n2C)n1Cc1ccccc1 | inactive | –
42 | C/C(Cl)=C\Cn1c(NCCc2ccccc2)nc2c1c(=O)n(C)c(=O)n2C | inactive | –
43 | CCc1cc2c(cc3c(=O)n(CC(=O)N4CCN(C)CC4)ncn32)s1 | inconclusive: 79.4 µM [inhibitor, single point] | –
44 | O=C(O)c1ccc(Cl)c(S(=O)(=O)N(Cc2ccccc2)c2ccccc2Cl)c1 | inactive | –
45 | Cc1cn(C)c(CC(=O)N2CCN(c3ccc(F)cc3)CC2)c1C(=O)O | inactive | –
46 | CCCC(=O)Oc1ccc2c(C)cc(=O)oc2c1 | inconclusive: 25.1 µM [inhibitor, single point] | –
47 | O=C1/C(=C/c2ccc(Cl)cc2)SC(=S)N1CCC(=O)N1CCCCC1CCO (stereo not drawn) | inactive | –
48 | Cc1ccc(N2C(=O)CS(=O)(=O)CC2=O)cc1 | active: 4.47 µM | –
49 | O=C(O)c1ccc(C=C(c2nc3ccccc3s2)c2nc3ccccc3s2)cc1 | inactive | –
50 | Cc1cc(=O)n2[nH]c(=O)c(N=Nc3ccccc3)c2[nH]1 | inconclusive: 25.1 µM [inhibitor, single point] | –

Row | Compound | Potency | activity change, negative = inhibition
51 | COc1ccc(-c2nc3c(C#N)c[nH]n3c2NC2CCCC2)cc1 | inactive | –
52 | O=C(NN=Cc1ccc2c(c1)OCO2)c1ccccc1 | – | inactive: 8% [at 2.29 µM]
53 | O=C(COC(=O)c1c[nH]c2ccccc12)NC1CCCCC1 | inconclusive: 39.8 µM [inhibitor, single point] | –
54 | [N-]=[N+]=Nc1ccc(C(=O)CSC[C@H](NC(=O)CC[C@H](N)C(=O)O)C(=O)NCC(=O)O)cc1 | inconclusive: 26.7 µM [inhibitor, single point] | –
55 | CCc1nnc(NS(=O)(=O)c2ccc(NC(=S)NC(=O)c3ccc(F)cc3)cc2)s1 | active: 17.8 µM | –
56 | O=C(NCc1ccco1)c1c2c(nc3ccccc13)CCC2 | inconclusive: 28.2 µM [inhibitor, single point] | –
57 | Cc1ccc(/C=N/NC(=O)CNC(=O)c2cccs2)o1 | inactive | –
58 | O=C(O)CC1C(=O)NCCN1C/C=C/c1ccccc1 (stereo not drawn) | inconclusive: 79.4 µM [inhibitor, partial curve] | –
59 | Cc1ccc(-c2cc(C(F)F)n3ncc(C(=O)N4CCCCC4c4cccnc4)c3n2)cc1 (stereo not drawn) | inactive | –
60 | N#C/C(=C/c1ccc(N2CCCCC2)o1)c1cccc(F)c1 | active: 7.08 µM | –
61 | COc1ccc(N=C2S/C(=C\c3cc(C)n(C)c3C)C(=O)N2C)cc1 | inconclusive: 20 µM [inhibitor, full curve] | –
62 | CCC(C)N1CCN(C(=O)C2CCN(S(=O)(=O)c3c(C)noc3/C=C/c3ccco3)CC2)CC1 (stereo not drawn) | inconclusive: 35.5 µM [inhibitor, partial curve] | –
63 | CCCOc1ccc(CNC(=O)Cn2cc3c(n2)-c2c(oc(C(=O)N4CCOCC4)c2C)CC3)cc1 | inactive | –
64 | NNC(=O)c1cc(C2CC2)nc2ccc(Br)cc12 | – | inactive: 2.94% [at 2.29 µM]
65 | CCOC(=O)c1cnc2cc(C)ccn2c1=O | inconclusive: 70.8 µM [inhibitor, single point] | –
66 | Cc1cccnc1NC(=O)CSc1nnc(COc2ccc(C(C)C)cc2)n1C | inconclusive: 89.1 µM [inhibitor, single point] | –
67 | COc1ccc2[nH]c(=O)c(CN(C(=O)c3cccnc3)c3cccc(C)c3)cc2c1 | inactive | –
68 | O=C(CSC1=N/C(=C/c2ccc(Cl)c(Cl)c2)C(=O)N1c1ccccc1F)NC1CC1 | inconclusive: 79.4 µM [inhibitor, single point] | –
69 | COc1ccc(/C=N/NC(=O)c2[nH]c3ccc(Br)cc3c2-c2ccccc2)cc1 | inconclusive: 39.8 µM [inhibitor, single point] | –
70 | COc1ccc2nc(N3CCCC3)c(C#N)cc2c1 | inactive | –
71 | O=C(NCCN1CCOCC1)Nc1ccccc1 | inconclusive: 89.1 µM [inhibitor, single point] | –
72 | Cc1ccc(/C=C2\SC(=S)N(/N=C/c3cc([N+](=O)[O-])ccc3O)C2=O)o1 | active: 22.4 µM | –
73 | CCC(Sc1ccccn1)C(=O)Nc1cccc([N+](=O)[O-])c1 (stereo not drawn) | inconclusive: 3.55 µM [inhibitor, single point] | –
